Drawing on paper PMC5700166, this text covers binding signal for ten sequences.

Assay in all cases: protein-binding microarray (PBM)
What all share (details): PBM: ~300 nM protein, 6 mM HEPES pH 7.8, 80 mM KCl, 0.5 mM EDTA, 0.5 mM EGTA, 6% glycerol, 35 ng/ul poly-dIdC, 1% milk, 1 h, room temperature; Ap Aiptasia and Nv Nematostella (sea anemones) / Co Capsaspora / Aq Amphimedon (sponge) / Dm Drosophila / Hu human; RHD is the Rel homology domain; high values mean tight binding; most listed sequences are background and not binding sites; double strand, one strand shown

One assay concerns the target T1, GST-Ap-NF-kB RHD (UniProt A0A913YAJ5).
T1 sequence: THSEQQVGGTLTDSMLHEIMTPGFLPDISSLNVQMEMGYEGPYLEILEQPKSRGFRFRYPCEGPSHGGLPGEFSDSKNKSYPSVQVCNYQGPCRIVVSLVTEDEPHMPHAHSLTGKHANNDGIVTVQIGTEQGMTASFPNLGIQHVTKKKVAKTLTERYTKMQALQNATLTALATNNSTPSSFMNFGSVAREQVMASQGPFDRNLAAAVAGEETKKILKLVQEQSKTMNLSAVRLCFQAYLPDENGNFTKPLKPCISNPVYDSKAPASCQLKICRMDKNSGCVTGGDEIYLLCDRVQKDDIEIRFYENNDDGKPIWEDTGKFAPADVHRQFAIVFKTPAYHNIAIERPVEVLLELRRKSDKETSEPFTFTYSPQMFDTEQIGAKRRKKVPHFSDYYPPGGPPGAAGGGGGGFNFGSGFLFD

Assay [1] addresses T2, GST-Nv-NF-kB (Cys allele) (UniProt E5G601).
T2 sequence: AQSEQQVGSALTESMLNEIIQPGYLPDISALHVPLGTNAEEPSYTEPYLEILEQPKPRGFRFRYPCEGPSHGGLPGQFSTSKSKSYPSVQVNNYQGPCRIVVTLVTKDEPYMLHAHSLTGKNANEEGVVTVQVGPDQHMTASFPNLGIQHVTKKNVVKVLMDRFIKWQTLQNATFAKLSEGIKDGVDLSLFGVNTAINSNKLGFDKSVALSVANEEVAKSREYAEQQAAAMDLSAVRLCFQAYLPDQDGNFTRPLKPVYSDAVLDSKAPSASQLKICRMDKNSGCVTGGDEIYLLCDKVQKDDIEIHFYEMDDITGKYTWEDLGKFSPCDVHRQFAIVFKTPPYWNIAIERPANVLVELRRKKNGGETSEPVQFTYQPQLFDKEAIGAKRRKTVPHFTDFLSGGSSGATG

For a further assay, the target named is T3, GST-Co-NF-kB (UniProt F1ARL5).
T3 sequence: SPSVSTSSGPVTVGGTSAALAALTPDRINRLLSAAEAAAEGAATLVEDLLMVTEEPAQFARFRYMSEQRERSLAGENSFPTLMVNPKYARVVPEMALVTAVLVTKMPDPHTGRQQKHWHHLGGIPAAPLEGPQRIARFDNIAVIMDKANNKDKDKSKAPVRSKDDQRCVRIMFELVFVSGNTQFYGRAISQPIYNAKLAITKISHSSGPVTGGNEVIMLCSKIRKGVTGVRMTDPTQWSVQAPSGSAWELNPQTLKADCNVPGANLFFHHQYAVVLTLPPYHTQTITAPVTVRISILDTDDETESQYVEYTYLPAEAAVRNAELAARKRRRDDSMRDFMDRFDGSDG

Another assay addresses T4, GST-Dm-Relish (UniProt Q94527).
T4 sequence: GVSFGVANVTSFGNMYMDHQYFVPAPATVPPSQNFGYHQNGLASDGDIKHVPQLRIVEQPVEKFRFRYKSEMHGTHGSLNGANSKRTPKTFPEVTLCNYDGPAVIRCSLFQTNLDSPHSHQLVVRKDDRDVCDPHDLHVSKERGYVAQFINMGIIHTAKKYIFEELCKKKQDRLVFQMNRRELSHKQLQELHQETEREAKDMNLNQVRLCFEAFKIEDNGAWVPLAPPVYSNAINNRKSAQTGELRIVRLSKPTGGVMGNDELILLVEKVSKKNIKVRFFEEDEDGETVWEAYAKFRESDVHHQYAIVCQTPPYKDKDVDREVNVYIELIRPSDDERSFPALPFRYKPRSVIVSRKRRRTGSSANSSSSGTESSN

A further assay deals with T5, GST-Aq-NF-kB (UniProt A9Y5G7).
T5 sequence: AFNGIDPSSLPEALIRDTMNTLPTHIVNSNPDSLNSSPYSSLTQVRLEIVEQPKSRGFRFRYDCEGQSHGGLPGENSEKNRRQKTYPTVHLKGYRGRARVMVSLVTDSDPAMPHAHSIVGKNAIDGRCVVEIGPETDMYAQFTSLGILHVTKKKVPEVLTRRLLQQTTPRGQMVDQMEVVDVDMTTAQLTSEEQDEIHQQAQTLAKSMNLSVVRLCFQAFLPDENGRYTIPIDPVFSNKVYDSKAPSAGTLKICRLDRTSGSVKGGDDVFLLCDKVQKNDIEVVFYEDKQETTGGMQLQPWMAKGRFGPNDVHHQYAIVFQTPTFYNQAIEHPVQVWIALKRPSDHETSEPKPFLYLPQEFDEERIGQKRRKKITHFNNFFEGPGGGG

This is a selection; strong and weak results do not stand in their true shares. The list includes weakly bound sequences.

Regarding “CCGATTAACATCAGAGCGGGTTTTGATGTTAATCGGGTCTTGATTCGCTTGACGCTGCTG”, the binding signal with GST-Ap-NF-kB RHD was 0.94 z-score; in assay [1], 0.649 z-score; in the assay with GST-Co-NF-kB it was -0.24 z-score; with GST-Dm-Relish, 0.291 z-score; in the assay with GST-Aq-NF-kB, 0.4 z-score.

On to “CCGATTAACATCAGTAAACTCCATGATGTTAATCGGGTCTTGATTCGCTTGACGCTGCTG”, for which the binding signal with GST-Ap-NF-kB RHD is -0.136 z-score; in assay [1], -0.839 z-score; in the assay with GST-Co-NF-kB, -0.482 z-score; with GST-Dm-Relish, 1.1 z-score; with GST-Aq-NF-kB it was -0.0191 z-score.

Turning to “CCGATTAACATCAGCAGTGCTGATGATGTTAATCGGGTCTTGATTCGCTTGACGCTGCTG”, the binding signal was -0.547 z-score with GST-Ap-NF-kB RHD; 0.0849 z-score in assay [1]; -1.01 z-score in the assay with GST-Co-NF-kB; -0.671 z-score with GST-Dm-Relish; -0.591 z-score with GST-Aq-NF-kB.

Regarding “CCGATTAACATCAGGGCAGTCCATGATGTTAATCGGGTCTTGATTCGCTTGACGCTGCTG”, the binding signal with GST-Ap-NF-kB RHD was 0.42 z-score; in assay [1] it was -0.143 z-score; with GST-Co-NF-kB it was -0.0464 z-score; in the assay with GST-Dm-Relish, -0.2 z-score; with GST-Aq-NF-kB, 1.1 z-score.

Take “CCGATTAACATCACGCTAATGACTGATGTTAATCGGGTCTTGATTCGCTTGACGCTGCTG”: the binding signal was 0.262 z-score in the assay with GST-Ap-NF-kB RHD; -0.444 z-score in assay [1]; -0.248 z-score in the assay with GST-Co-NF-kB; 0.0568 z-score with GST-Dm-Relish; -0.47 z-score with GST-Aq-NF-kB.

As to “CCGATTAACATCAACTGCTCACATGATGTTAATCGGGTCTTGATTCGCTTGACGCTGCTG”, the binding signal was -0.324 z-score with GST-Ap-NF-kB RHD; -1.02 z-score in assay [1]; -0.347 z-score with GST-Co-NF-kB; -1.02 z-score with GST-Dm-Relish; -0.58 z-score with GST-Aq-NF-kB.

Take “CCGATTAACATCACTGGGATTGATGATGTTAATCGGGTCTTGATTCGCTTGACGCTGCTG”: the binding signal in the assay with GST-Ap-NF-kB RHD was 0.536 z-score; in assay [1], -0.127 z-score; in the assay with GST-Co-NF-kB it was 0.94 z-score; in the assay with GST-Dm-Relish, 0.0851 z-score; in the assay with GST-Aq-NF-kB, 0.274 z-score.

With “CCGATTAACATCATCTGAAGATTTGATGTTAATCGGGTCTTGATTCGCTTGACGCTGCTG”, the binding signal in the assay with GST-Ap-NF-kB RHD is -0.483 z-score; in assay [1], -0.852 z-score; with GST-Co-NF-kB it was -1.13 z-score; in the assay with GST-Dm-Relish, -0.66 z-score; in the assay with GST-Aq-NF-kB, -0.606 z-score.

With “CCGATTAACATCAACATGTAGGATGATGTTAATCGGGTCTTGATTCGCTTGACGCTGCTG”, the binding signal with GST-Ap-NF-kB RHD was -0.599 z-score; in assay [1] it was -0.23 z-score; with GST-Co-NF-kB it was 0.241 z-score; with GST-Dm-Relish, -0.453 z-score; with GST-Aq-NF-kB, -0.454 z-score.

Consider “CCGATTAACATCATCTGCCTTTTTGATGTTAATCGGGTCTTGATTCGCTTGACGCTGCTG”, for which the binding signal with GST-Ap-NF-kB RHD is -0.132 z-score; in assay [1], 0.0146 z-score; with GST-Co-NF-kB it was 0.174 z-score; with GST-Dm-Relish, -0.479 z-score; with GST-Aq-NF-kB, -0.214 z-score.
